The results in this text go back to article PMC4336329 (PLoS ONE, 2015).

The whole screen tested about 310,000 compounds, of which about 14,000 (4.5%) showed an effect of 50% or more. Effects have a minus sign here. This is one part of the list.
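Note: peak tail current of the secondary pulse compared with the same well before compound.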

The target in the experiment is human ether-à-go-go-related gene (hERG) potassium channel (human, UniProt Q12809). Kind of experiment: primary screen, population patch clamp on CHO cells stably expressing hERG.
Chain of human ether-à-go-go-related gene (hERG) potassium channel (Q12809 whole entry, looked up): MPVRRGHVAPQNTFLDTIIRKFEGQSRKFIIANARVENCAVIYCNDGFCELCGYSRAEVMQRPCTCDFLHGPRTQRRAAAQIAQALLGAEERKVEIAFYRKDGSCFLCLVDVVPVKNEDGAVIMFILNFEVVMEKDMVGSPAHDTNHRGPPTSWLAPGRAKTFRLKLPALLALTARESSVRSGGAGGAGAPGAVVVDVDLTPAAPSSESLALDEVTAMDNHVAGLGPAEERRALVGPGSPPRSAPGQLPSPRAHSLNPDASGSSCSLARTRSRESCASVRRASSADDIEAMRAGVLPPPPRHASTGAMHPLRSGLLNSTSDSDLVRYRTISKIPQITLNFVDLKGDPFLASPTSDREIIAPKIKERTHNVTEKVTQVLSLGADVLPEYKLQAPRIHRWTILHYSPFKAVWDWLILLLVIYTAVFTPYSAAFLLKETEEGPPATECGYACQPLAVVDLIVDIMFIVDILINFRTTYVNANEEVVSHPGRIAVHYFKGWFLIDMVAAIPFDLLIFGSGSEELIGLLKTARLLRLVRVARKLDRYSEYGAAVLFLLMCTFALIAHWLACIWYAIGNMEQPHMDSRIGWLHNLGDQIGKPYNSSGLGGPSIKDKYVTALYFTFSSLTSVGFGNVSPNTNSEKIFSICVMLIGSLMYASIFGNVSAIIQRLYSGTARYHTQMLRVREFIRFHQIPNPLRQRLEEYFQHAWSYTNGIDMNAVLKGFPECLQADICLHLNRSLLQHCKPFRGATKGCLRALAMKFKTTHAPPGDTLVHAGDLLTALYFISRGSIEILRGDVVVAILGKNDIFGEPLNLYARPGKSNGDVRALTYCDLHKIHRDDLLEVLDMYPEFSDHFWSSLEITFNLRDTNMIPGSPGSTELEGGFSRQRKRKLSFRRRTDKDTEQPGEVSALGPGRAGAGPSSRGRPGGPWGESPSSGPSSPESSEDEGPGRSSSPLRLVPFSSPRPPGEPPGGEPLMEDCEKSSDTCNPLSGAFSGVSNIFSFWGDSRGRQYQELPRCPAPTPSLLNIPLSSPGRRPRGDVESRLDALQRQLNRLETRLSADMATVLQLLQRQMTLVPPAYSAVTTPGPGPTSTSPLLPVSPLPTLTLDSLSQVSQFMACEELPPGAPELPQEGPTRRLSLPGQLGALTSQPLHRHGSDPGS
Take `N/C(=N\OS(=O)(=O)c1ccccc1)c1ccncc1`: the “hERG current change (%, negative = inhibition) at 10uM” value is 12.5%.
Regarding `CN(C(=O)c1ccc(NC(=O)Cc2ccc(NC(=O)C3CCCN(C(=O)C4CCCCC4)C3)cc2)cc1)C1CC1` (stereo not shown), the “hERG current change (%, negative = inhibition) at 10uM” value came out at 6.24%.
The figure for `Oc1ccc(Nc2nnc(-c3ccc(O)cc3)c3ccccc23)cc1` is 24.3%; for `Cc1cc(C)c2c(N)c(C(=O)Nc3c(C)n(C)n(-c4ccccc4)c3=O)sc2n1` it is 34.4%; for `O=C(OCC(=O)N1CCCCCC1)c1ccccc1Br` it is -17.4%.
The figure for `CCCCC#Cc1cncc(C(=O)NN)c1` is 0.845%; for `COc1ccc(OCC(=O)Nc2ccccc2C(=O)Nc2ccc(C(=O)O)cc2)cc1` it is 0.622%.
As for `COc1cccc(N2CC(C(=O)Nc3c(C)cccc3C)CC2=O)c1` (stereo not shown), the “hERG current change (%, negative = inhibition) at 10uM” value is recorded as -2.79%.
Consider `CC1(C)C(=O)OC(c2ccccc2)C(C)(C)C1=O` (stereo not shown), for which the “hERG current change (%, negative = inhibition) at 10uM” value was -13.4%.
On to `O=C(CSc1ccc(-c2nc3ccccc3[nH]2)cn1)Nc1ccc(S(=O)(=O)N2CCCC2)cc1`, for which the “hERG current change (%, negative = inhibition) at 10uM” value was 4.31%.
Consider `COc1cccc(CNC(=O)c2cc(S(=O)(=O)N3CCOCC3)ccc2N2CCCC2)c1`, for which the “hERG current change (%, negative = inhibition) at 10uM” value is reported as -14.4%.
As for `O=C(CCNC(=O)c1ccc(Br)cc1)NCC(c1ccco1)N1CCCCC1` (stereo not shown), the “hERG current change (%, negative = inhibition) at 10uM” value is recorded as -17.2%.
The result for `CC(C)NC(=O)C1CCN(C(=O)c2cc3sccc3n2Cc2ccc(F)cc2)CC1` reads -3.2%; that for `CCc1nc(SCC(=O)NCCc2ccccc2)c2oc3ccccc3c2n1`, -17.4%.
On to `CC(C)c1ccc2[nH]c(O)c(N=NC(=S)NCCc3ccccc3)c2c1`, for which the “hERG current change (%, negative = inhibition) at 10uM” value came out at 22%.
For `Cn1nnnc1SCC(=O)N1CCN(c2cccc(Cl)c2)CC1`, the “hERG current change (%, negative = inhibition) at 10uM” value was -26.8%.
Take `CC(C)Oc1ccc(C(=O)Nc2ccc([N+](=O)[O-])cc2)cc1`: the “hERG current change (%, negative = inhibition) at 10uM” value is given as 0.142%.
Regarding `C=CCn1c(SCC(=O)Nc2nc3ccccc3s2)nnc1-c1ccccc1O`, the “hERG current change (%, negative = inhibition) at 10uM” value is -16.7%.
On to `CCOC(=O)c1c(C)[nH]c(C(=O)COC(=O)CSCC(=O)N(CC)CC)c1C`, for which the “hERG current change (%, negative = inhibition) at 10uM” value was found to be 0.618%.
For the compound `COCC(C)N1CCC(Oc2ccc(C(=O)NCc3ccccn3)cc2)CC1` (stereo not shown), the “hERG current change (%, negative = inhibition) at 10uM” value is given as 13.1%.
For `NC(=O)CC(NC(=O)Cc1ccc(Br)cc1)c1ccc(NCCN2CCOCC2)c([N+](=O)[O-])c1` (stereo not shown), the “hERG current change (%, negative = inhibition) at 10uM” value is given as 14.9%.
Take `COc1ccc([N+](=O)[O-])c(OC)c1C(=O)NC(=O)Nc1nc(C)cc(C)n1`: the “hERG current change (%, negative = inhibition) at 10uM” value amounted to 18%.
The result for `COc1ccccc1Nc1nc(-c2ccc([N+](=O)[O-])cc2)nc2ccccc12` reads 0.467%; that for `O=C(/C=C/c1ccc(F)cc1)NCCCn1ccnc1`, -31.9%.
The figure for `Cc1ccc(NCCC(=O)c2cccc([N+](=O)[O-])c2)c(C)c1` is -22.4%; for `Cc1ccc(Nc2cc(C(=O)NCCCN3CCOCC3)c3ccccc3n2)cc1C` it is -18.6%; for `CCCn1nc(C(=O)NC2CCCc3ccccc32)c2ccccc2c1=O` (stereo not shown) it is -13.2%.
As to `FC(F)(F)COc1nc(N2CCOCC2)nc(N(c2ccccc2)c2ccccc2)n1`, the “hERG current change (%, negative = inhibition) at 10uM” value is listed as -11.6%.
For the compound `CN1CCN(C(CNC(=O)C(=O)Nc2ccc3c(c2)OCO3)c2ccc(F)cc2)CC1` (stereo not shown), the “hERG current change (%, negative = inhibition) at 10uM” value was -44.3%.
For `COc1ccc(-c2c(C)nn(-c3ccccc3)c2N)cc1OC`, the “hERG current change (%, negative = inhibition) at 10uM” value is -5.57%.
The figure for `CCOC(=O)c1ccc(NS(=O)(=O)c2cnc[nH]2)cc1` is 6.27%.
The result for `N=c1n(-c2ccccc2)c(O)cc(=O)n1-c1ccccc1` reads -6.28%; that for `O=C(Nc1ccccc1C(=O)NCc1ccco1)c1ccccc1`, -20.4%; that for `Cc1ccc(NC(=O)COC(=O)C2CC2(Cl)Cl)cc1C` (stereo not shown), -4.06%.
For the compound `CC(C)(C)CN1C(=O)C(=O)NC[C@H]1Cc1cccc2ccccc12`, the “hERG current change (%, negative = inhibition) at 10uM” value is on record as -2.97%.
With `COc1cc(C(=S)N2CCCC2)cc(OC)c1OC`, the “hERG current change (%, negative = inhibition) at 10uM” value worked out at 5.49%.
Turning to `Cc1ccc(S(=O)(=O)c2cnc(-c3ccccc3)nc2N2CCN(C)CC2)cc1`, the “hERG current change (%, negative = inhibition) at 10uM” value is given as -49.1%.
Turning to `O=C(Nc1nccs1)c1cn(-c2ccccc2)nc1-c1ccncc1`, the “hERG current change (%, negative = inhibition) at 10uM” value is reported as -9.65%.
In the case of `Cc1ccc(C(=O)CCC(=O)OCC(=O)NNC(=O)c2ccccc2Cl)cc1`, the “hERG current change (%, negative = inhibition) at 10uM” value is given as -1.96%.
The result for `COc1cc(/C=N/Nc2cc(C)nc(NS(=O)(=O)c3ccccc3)n2)ccc1O` reads 1.84%; that for `O=C1CCCCN1CCC(=O)N1CCCC(Nc2ccccc2)C1` (stereo not shown), 24.3%.
With `CC12CN(C(=O)c3ccc(Cl)cc3)C3(C#N)CC1CCC23C` (stereo not shown), the “hERG current change (%, negative = inhibition) at 10uM” value was -23%.
Consider `O=C1CCCN1c1ccc(N2CCCC2=O)cc1`, for which the “hERG current change (%, negative = inhibition) at 10uM” value turned out to be 28.4%.
The figure for `O=C(Nc1c2c(nn1-c1cccc(Cl)c1)CS(=O)(=O)C2)c1ccco1` is -37.9%.
The result for `O=C(Nc1cccc(C(F)(F)F)c1)C1CCCO1` (stereo not shown) reads 13.5%; that for `O=C(NS(=O)(=O)c1ccccc1)c1ccccc1F`, 3.38%.
As to `CN(C)C(CNC(=O)c1cccc(S(=O)(=O)N(C)C)c1)c1ccccc1` (stereo not shown), the “hERG current change (%, negative = inhibition) at 10uM” value is given as -5.71%.
For `N#CC1=C(N)Oc2n[nH]c(-c3cccs3)c2C1c1cccnc1` (stereo not shown), the “hERG current change (%, negative = inhibition) at 10uM” value was 1.87%.
Regarding `COC(=O)[C@H](Cc1ccccc1)NC(=O)O[C@@H]1C(=O)c2cc(Br)ccc2O[C@H]1c1cccc(OC)c1`, the “hERG current change (%, negative = inhibition) at 10uM” value turned out to be 13%.
As for `CC(=O)c1ccc(NS(=O)(=O)c2ccc(-c3cnc(C4CC4)o3)cc2)cc1`, the “hERG current change (%, negative = inhibition) at 10uM” value was 2.03%.
`Cc1cccc(OCC(=O)NNC(=O)CCCCC(=O)NNC(=O)COc2cccc(C)c2)c1`: the “hERG current change (%, negative = inhibition) at 10uM” value is on record as 8.19%.
On to `O=C(NC1CC1)C1CCN(S(=O)(=O)c2cc([N+](=O)[O-])ccc2Cl)CC1`, for which the “hERG current change (%, negative = inhibition) at 10uM” value is given as -28%.
On to `COc1ccc(C(=O)c2cc3c(cc2[N+](=O)[O-])OCCO3)cc1`, for which the “hERG current change (%, negative = inhibition) at 10uM” value was -12.7%.
For the compound `CC(C)CN(C(=O)c1ccc2c(c1)OCCO2)c1c(N)n(Cc2ccccc2)c(=O)[nH]c1=O`, the “hERG current change (%, negative = inhibition) at 10uM” value is on record as 1.66%.
As for `COc1ccc(NC(=O)Nc2ccccc2)cc1S(=O)(=O)N1CCCCC1`, the “hERG current change (%, negative = inhibition) at 10uM” value is listed as 19.1%.
As for `O=C(CCCc1c[nH]c2ccccc12)NCc1ccccc1F`, the “hERG current change (%, negative = inhibition) at 10uM” value was -18.8%.
With `CCOC(=O)c1c(/N=C/c2cccc(C)c2O)sc2c1CCN(C)C2`, the “hERG current change (%, negative = inhibition) at 10uM” value is on record as -28.3%.
On to `CCCN1C(=O)c2ccc(C(=O)NCc3ccco3)cc2C1=O`, for which the “hERG current change (%, negative = inhibition) at 10uM” value is recorded as -8.99%.
In the case of `Cc1ccc2nc(-c3ccc(NC(=O)CN4CCN(c5ccccn5)CC4)cc3)sc2c1`, the “hERG current change (%, negative = inhibition) at 10uM” value is listed as 9.23%.
Consider `COc1ccccc1C(=O)NCCc1c(C)[nH]c2c(C)ccc(F)c12`, for which the “hERG current change (%, negative = inhibition) at 10uM” value is 0.109%.
Consider `CCOC(=O)C1CCN(C(=O)c2cc3ccc(OC)cc3[nH]2)CC1`, for which the “hERG current change (%, negative = inhibition) at 10uM” value is reported as 12.5%.
The figure for `COc1ccc(C(=O)NC(=S)N2CCCC2)cc1` is -14.7%.
Regarding `NC(=O)c1ccsc1NC(=O)CSc1nnc(C2CC2)n1Cc1ccccc1`, the “hERG current change (%, negative = inhibition) at 10uM” value is given as -17.4%.
As for `COc1ccc(C(=O)/C=C/c2cccs2)c(OC(=O)c2cccc([N+](=O)[O-])c2)c1`, the “hERG current change (%, negative = inhibition) at 10uM” value was 5.34%.
Consider `C=C(C)c1cccc(C(C)(C)NC(=O)N2CCN(c3ncccn3)CC2)c1`, for which the “hERG current change (%, negative = inhibition) at 10uM” value is given as 0.0429%.
`CCCCN(CCCC)S(=O)(=O)c1ccc2[nH]c(=O)[nH]c2c1`: the “hERG current change (%, negative = inhibition) at 10uM” value is given as -6.47%.
In the case of `COc1ccccc1N1CCN(C(c2cccs2)C(C)NC(=O)c2ccco2)CC1` (stereo not shown), the “hERG current change (%, negative = inhibition) at 10uM” value is on record as -1.73%.
As to `Cc1ccc(-c2nc3cc(NC(=O)C(C)C)ccc3o2)cc1C`, the “hERG current change (%, negative = inhibition) at 10uM” value is on record as -0.795%.
In the case of `CCOc1cc(S(=O)(=O)Nc2ccc(Cl)cn2)ccc1Cl`, the “hERG current change (%, negative = inhibition) at 10uM” value came to 5.67%.
For the compound `C/C(=C\c1ccco1)C1C(C#N)=C(N)OC2=C1C(=O)CC(C)(C)C2` (stereo not shown), the “hERG current change (%, negative = inhibition) at 10uM” value is reported as -24.4%.
As to `O=C(NC1CCCCCC1)C1CCC(CNS(=O)(=O)c2ccc(Br)s2)CC1` (stereo not shown), the “hERG current change (%, negative = inhibition) at 10uM” value was 19.7%.
For `COc1ccc(Cl)cc1C(=O)NNC(=S)NC(=O)/C=C/c1ccco1`, the “hERG current change (%, negative = inhibition) at 10uM” value was determined as 16.9%.
The figure for `CCO[C@@H]1OC(C(=O)N2CCN(Cc3ccc4c(c3)OCO4)CC2)=C[C@H](c2coc3ccccc3c2=O)[C@H]1CCCO` is -33.6%; for `Cc1nc2ccccc2c(=O)n1-c1ccc(NS(=O)(=O)c2cc(F)ccc2F)cc1` it is -11.7%; for `O=C(N/N=C/c1cn(CC(=O)N2CCOCC2)c2ccccc12)c1cccnc1` it is 16.3%.
Turning to `COc1ccccc1C1C(C(C)=O)=C(O)C(=O)N1c1ccc(O)cc1` (stereo not shown), the “hERG current change (%, negative = inhibition) at 10uM” value is -17.5%.
Turning to `COc1ccccc1NS(=O)(=O)c1ccc(NC(=O)c2[nH]nc(OC)c2[N+](=O)[O-])cc1`, the “hERG current change (%, negative = inhibition) at 10uM” value is reported as -0.642%.
Take `O=C(O)Cc1ccc(N=Nc2c(O)c(C(=O)O)cc3ccccc23)cc1`: the “hERG current change (%, negative = inhibition) at 10uM” value is 19.8%.
`N#Cc1ccccc1NC(=S)NC(=O)c1cccs1`: the “hERG current change (%, negative = inhibition) at 10uM” value stood at 14.5%.
On to `O=S1(=O)CC2N=C(N(Cc3c(F)cccc3Cl)c3ccccc3F)SC2C1` (stereo not shown), for which the “hERG current change (%, negative = inhibition) at 10uM” value is on record as 4.06%.
The figure for `Cc1ccc(C)c(C(=O)NC(C)CCc2ccccc2)c1` (stereo not shown) is 5.55%; for `COc1ccc(N(CCC#N)C(=O)/C(C#N)=C\c2cccs2)cc1` it is 6.23%.
The result for `CCOC(=O)C1(Cc2cccc(OC)c2)CCN(Cc2cccc(OC)c2O)CC1` reads -66%; that for `COC(=O)c1ccccc1NC(=O)CSc1nc(N)cc(N)n1`, -1.54%; that for `CCc1ccc(CNC(=O)CCCn2c(=O)c3cccn3c3cccnc32)cc1`, -26.2%.
